Data taken from PubChem BioAssay AID493208 (National Center for Advancing Translational Sciences (NCATS), 2011).
The campaign covered roughly 44,000 compounds. About 340 (0.77%) were called active. Not shown: some 5% with an inconclusive outcome. Calls come from the whole dose curve; as a rule, active = well fitted inhibition curve with a large enough effect; inconclusive = small, poorly fitted or top-dose-only effect; inactive = flat fitted curve, though single readings scatter. Some of the results follow.

Assay: Acumen qHTS Assay for Inhibitors of the mTORC1 Signaling Pathway in MEF (Tsc2-/-, p53-/-) Cells: Sytravon;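 note: plate controls were DMSO for no effect and rapamycin for full effect; nearly all actives have a fitted effect of over 50% in size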
Conditions: phospho-rpS6 immunofluorescence/PI, 24 h; series mostly up to 38.3 µM; activity change, negative = inhibition: at the top concentration
In short: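 Tsc2-/-, p53-/- mouse embryonic fibroblasts (empty-vector line) exposed to compound 24 hrs at 37 C, fixed, immunostained for phospho-rpS6 and counterstained with propidium iodide. Acumen laser scanning gives % positive cells from Alexa 488/PI ratio, thresholded using 7.5 nM rapamycin; PI count gives viability.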

Activity change, negative = inhibition, inactive:
O=C(Nc1ccc(Cl)cc1)c1ccc2c(c1)N(Cc1ccccc1)C(=O)c1ccccc1S2(=O)=O 2.16%, Cc1cc2oc(C(=O)Nc3cccc(-c4nc5ccccc5o4)c3)c(C)c2cc1Cl 0%, COc1ccc(OC)c(CNC(=O)Cn2nc(C)c3c(C)n(-c4ccccc4)nc3c2=O)c1 -0.269%, CN(CC(=O)Nc1cccc(C#N)c1)S(=O)(=O)c1cc2c(cc1Cl)NC(=O)CO2 -2.33%, CCOc1ccccc1CNC(=O)CC(C)n1ccc(C)n1 (stereo not given) 1.52%, COc1ccc(NC(=O)Cn2c(=O)n(Cc3ccco3)c(=O)c3sc4ccccc4c32)cc1Cl -7.53%, Cc1ccc(N2CCn3c2nc2c3c(=O)n(Cc3cccc(Cl)c3)c(=O)n2C)cc1C 6.41%, CC(C)c1ccc(NC(=O)CN2C(=O)C3(SCC(=O)N3c3ccc(F)cc3)c3ccccc32)cc1 (stereo not given) -9.35%, O=C(Nc1ccc(Cl)cc1)c1ccc2c(c1)N(Cc1ccccc1)CCS2 -7.68%, CCCC12CN3CC(CCC)(CN(C1)C3c1c[nH]c3ccc(OC)cc13)C2=O (stereo not given) 4.71%, CCN(C(=O)CSc1nc2ccccc2nc1Cc1ccccc1OC)c1ccccc1 8.24%, O=C(CN1C(=O)CCSc2ccc(S(=O)(=O)N3CCCC3)cc21)Nc1ccccc1Cl 0.155%, CCSC1=NC2(CCN(C(=O)NC3CCCCC3)CC2)N=C1c1ccc(OC)cc1 -1.6%, Cc1nc(CC(=O)Nc2ccc(C(N)=O)cc2)cs1 -0.177%, CC(C(=O)NCc1ccccc1)n1ccc2cc(S(=O)(=O)N3CCCC3)ccc21 (stereo not given) -8.57%, Cc1ccc(C(=O)CC2(O)C(=O)N(CCc3ccccc3)c3ccc(Br)cc32)cc1 (stereo not given) -4.49%, CC(=O)Nc1ccc(S(=O)(=O)NC2(C(F)(F)F)C(=O)Nc3c2c(=O)[nH]c(=O)n3-c2ccc(C)cc2)cc1 (stereo not given) 0.433%, CCc1cccc(NC(=O)CN2C(=O)COc3ccc(S(=O)(=O)N4CCC(C)CC4)cc32)c1 3.41%, CCOCCCNC(=O)C(c1ccc(OC)cc1)N(Cc1cccs1)C(=O)CNC(C)=O (stereo not given) -7.61%, CCOC(=O)c1cc2c(=O)n3ccccc3nc2n(CCCOC)c1=NC(=O)c1cc2ccccc2o1 1.42%, COc1ccc(NC(=O)Cn2c(=O)n(Cc3ccccc3Cl)c(=O)c3cc(OC)c(OC)cc32)cc1 4.81%, Cc1ccc(Cn2c(C)c3cnn(CC(=O)N4CCN(c5cc(C)ccc5C)CC4)c(=O)c3c2C)cc1 -4.65%, COc1cccc(-n2c(C)nc3c(cnn3-c3ccc(C)c(C)c3)c2=O)c1 -4.88%, Cc1ccc(CCNC(=O)c2cc3ccccn3n2)cc1 2.82%, O=c1oc2ccc(Cl)cc2cc1-c1nc(-c2cccs2)no1 -0.356%, COC(=O)c1c(NC(=O)CS(=O)(=O)c2ccc(C)cc2)sc2c1CCCCC2 -0.916%, CCOc1cc2[nH]c(=O)n(CCC(=O)N3CCN(c4ccccc4)CC3)c(=O)c2cc1OCC -6.54%, Cc1ccc(-n2nc3c(N4CCCC(C(=O)NCc5ccccc5C)C4)nnc(C)c3c2C)cc1 (stereo not given) -3.37%, COc1cccc(C(=O)NCc2cn3cccc(C)c3n2)c1 0.0506%, Cn1c(=O)n(C)c2cc(CNCc3ccccc3Cl)ccc21 -6.44%, Cc1ccc2scc(N3CCCC(C)C3)c(=O)c2c1 (stereo not given) 1.03%, CCCn1c(=N)c(C(=O)NC(C)c2ccccc2)cc2c(=O)n3ccccc3nc21 (stereo not given) 0.344%, O=C(c1ccc(Cl)cc1)n1nc(-c2ccccc2)nc1NCc1ccco1 -8.96%, CCOc1ccc(S(=O)(=O)Nc2cc3c(C(=O)OCc4ccccc4)c(C)oc3c3ccccc23)cc1 -10.9%, CC(C)c1ccc(NC(=O)CSC2=Nc3ccccc3C3=NC(CCC(=O)NCc4cccs4)C(=O)N23)cc1 (stereo not given) -5.72%, COc1ccc2c(c1)c1c(c(=O)n(-c3cc(Cl)ccc3C)c(=O)n1Cc1ccc(F)cc1)n2C -13.7%, Cc1ccc(NC(=O)N2CCN3CCCCC3C2)cc1C (stereo not given) -0.756%, Cc1c(Cl)cccc1-n1ncc(C(=O)NC2CCCC2)c1C1CCN(C(=O)OC(C)(C)C)CC1 6.54%, CCSc1ncc(Cl)c(C(=O)Nc2cc(C)ccc2C)n1 5.83%, COc1ccccc1C(=O)OCc1cc(=O)n2c(C)csc2n1 0.623%, CCCOC(=O)c1c(-c2ccccc2)c(-c2ccccc2)nn(C)c1=O -2.13%, CC(=O)c1c(C)n(-c2cccc(Cl)c2)c2ccc(OC(=O)c3ccccc3)cc12 1.38%, COc1ccc(-c2[nH]c(-c3ccc(C)cc3)nc2SCC(=O)NCC2CCCO2)cc1 (stereo not given) -20.6%, COc1cccc(NC(=O)CSc2nc(=O)[nH]c3c2CCCC3)c1 -3.11%, COc1ccc(Br)cc1CNCc1c(C(=O)O)c(C)n(Cc2ccccc2C)c1C 0.466%, CCOc1ccc(-c2cc3nc(C4CCN(C(=O)OC(C)(C)C)CC4)c(C(=O)Nc4cccc(C(F)(F)F)c4)cn3n2)cc1 -18.1%, Cc1cc2c(cc1S(=O)(=O)CCC(=O)N1CCN(c3ccccc3)CC1)OCC(=O)N2 2.56%, CCCCCOC(=O)CSc1nc2sc3c(c2c(=O)n1Cc1ccccc1)CC(C)(CC)OC3 (stereo not given) 11.7%, CCS(=O)(=O)N1CC(=O)N(c2cc(Cl)ccc2C)C(C)(C(=O)NC2CCCCCC2)C1 (stereo not given) 2.06%, COc1ccc(-c2nc3scc(CCNS(=O)(=O)c4cccs4)n3n2)cc1 -12.8%, COc1ccc(CNC(=O)CCc2c(C)nn(-c3ccc(N4CCCC4)nn3)c2C)cc1 7.21%, Cc1ccc(-n2c(=O)c3c4c(sc3n(CC(=O)C(C)(C)C)c2=O)CCCCC4)cc1C -9.34%, COc1cccc(C(=O)NC2=NC(c3ccccc3F)CC(=O)N2)c1 (stereo not given) 3.89%, COc1cc(Cl)c(NS(=O)(=O)c2cc3[nH]c(=O)c(=O)[nH]c3cc2C)c(OC)c1 -1.25%, CCOC(=O)Cc1ccc(NC(=O)Nc2nnc(N3CCCCC3C)s2)cc1 (stereo not given) -8.07%, O=C(Nc1ccc2c(c1)CCCN2C(=O)c1cccs1)c1ccccc1C(F)(F)F 0%, COC(=O)c1ccc(NC(=O)c2c(-c3ccccc3)c(-c3ccccc3)nn(C)c2=O)cc1 4.04%, CCC(=O)N1CCc2cc(Br)cc(S(=O)(=O)NCCc3ccc(C)cc3)c21 -22.5%, CCCN(C(=O)c1cc2c(s1)-c1ccccc1OC2)c1ccc(C(C)C)cc1 5.7%, Cc1cccc(OC(=O)c2snnc2C)c1C 1.51%
